Laboratory results as given in the supplement of paper PMC5499739.
In all, about 16,000 sequences were measured (“Z-score”: median about -0.37, highest 2% from about 3.1 on). The list shows a part of the results.

Each sequence was assayed on RBM10 RRM1-ZnF-RRM2 (GST-tagged construct) (assay: RNAcompete 7-mer binding Z-score; higher = stronger binding preference).
Procedure: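 RNAcompete: 20 pmol GST-tagged RBM10 RNA-binding constructs were incubated with a designed RNA pool of about 241,000 sequences up to 41 nt (1.5 nmol) on glutathione beads for 30 min at 4 °C and washed. Bound RNAs were identified by microarray hybridisation. Each RNA 7-mer is scored by a one-sided Z-score of its enrichment, computed over probes that contain the 7-mer within longer pool sequences.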

| Sequence | RNAcompete 7-mer binding Z-score |
| --- | --- |
| AUGACCU | -0.788 |
| GAUGUAU | 0.275 |
| AAAAGAA | 0.0641 |
| UGCCAUU | -0.923 |
| AGGCUGU | -0.326 |
| UUGAACC | -0.588 |
| CACUCCU | -0.828 |
| GUCGGCG | 0.548 |
| CGCGUCG | -0.125 |
| AGUAUCC | -0.573 |
| CGCCAAC | -0.661 |
| AUGUGAA | 0.629 |
| ACAUCUC | -0.872 |
| GAGUUCC | -0.537 |
| ACGAUCC | -0.701 |
| CUAGGAC | 0.25 |
| GGAAGUA | 1.5 |
| AUACUGA | -0.202 |
| GCCAUUA | -0.588 |
| GAUUAAA | -0.198 |
| AGCCACG | -0.125 |
| AGUGCUU | -0.592 |
| GCAGGGC | 1.51 |

| Sequence | RNAcompete 7-mer binding Z-score |
| --- | --- |
| UCCCUUU | -0.959 |
| UGACUGU | -0.708 |
| UACGGUA | 0.763 |
| AGGACUC | -0.373 |
| CUGGCCC | -0.497 |
| GGCUACG | 0.523 |
| UUGAUGC | -0.544 |
| CCCAGCC | -0.679 |
| GGUCGUG | 1.32 |
| CUCCGUC | -0.894 |
| UGAAUAC | -0.49 |
| CGCCAUA | -0.632 |
| CUUCCAU | -0.799 |
| CUUUUUU | -0.85 |
| AACACGA | -0.231 |
| AGAGGAC | 0.632 |
| CAAUGUU | -0.504 |
| UGAACAU | -0.198 |
| GUUGCGC | 0.0204 |
| CACAUAA | -0.672 |
| UUCCUCU | -0.734 |
| UGCGACA | -0.213 |
| UCUGAGG | -0.122 |

| Sequence | RNAcompete 7-mer binding Z-score |
| --- | --- |
| GAUUACC | -0.537 |
| GACCUGG | -0.431 |
| AUUUAAC | -0.694 |
| GACGUCG | -0.286 |
| ACAACGG | 1.03 |
| CCCCUGU | -0.646 |
| ACUUUAA | -0.883 |
| CCCUCGU | -0.741 |
| GCGCCUA | -0.828 |
| ACCGCUG | -0.635 |
| AGGGGCA | 2.36 |
| GCAUGAA | 0.101 |
| GUGUUUA | 0.0422 |
| UAGAGUC | -0.00148 |
| UAUGACA | -0.267 |
| UUGGAGG | 2.78 |
| UUGCAAU | -0.577 |
| CUAAAGA | -0.315 |
| UGCACCC | -0.664 |
| GAUUCCA | -0.519 |
| UGUUCCG | -0.573 |
| UAACAGC | -0.224 |
| AGAGAGA | 0.428 |

| Sequence | RNAcompete 7-mer binding Z-score |
| --- | --- |
| UUCGCAC | -0.646 |
| UCUCCCG | -0.617 |
| GAAUAUU | -0.253 |
| GGAUUAU | 0.683 |
| AUAGUGG | 1.69 |
| CACUCAA | -0.624 |
| GUACUAC | -0.344 |
| UGGACGA | 1.66 |
| UGAUUUG | -0.417 |
| AUACUAG | -0.307 |
| GCUUUCC | -0.817 |
| UCCGAGU | -0.548 |
| CGUUAUC | -0.817 |
| GACACUA | -0.307 |
| ACGAUAU | -0.275 |
| UUACAGA | -0.322 |
| AUGUCGC | -0.573 |
| GAUCUGC | -0.828 |
| GAAGCUA | -0.0707 |
| CAUUUAC | -0.821 |
| GUUUCGA | -0.216 |
| GCUCAGG | 0.301 |
| ACGUAUC | -0.439 |

| Sequence | RNAcompete 7-mer binding Z-score |
| --- | --- |
| GAGACUA | -0.278 |
| GCCUCCC | -0.741 |
| ACAAUUG | -0.198 |
| CACAACC | -0.5 |
| UAGGAAU | 1.14 |
| UCUCCGC | -0.704 |
| CUCGACG | -0.555 |
| CCUGAUU | -0.941 |
| CUGUGAA | -0.366 |
| GCCUUAU | -0.916 |
| CCUUGGC | -0.653 |
| ACUGCGG | 0.253 |
| GAUCAGA | 0.494 |
| AACCACA | -0.275 |
| UAGAACC | -0.497 |
| GUCACUU | -0.726 |
| CUCAUAC | -0.712 |
| UUAGCGA | 0.0459 |
| CUGCAUG | -0.548 |
| AGUGUUG | 0.661 |
| ACCUACA | -0.814 |
| CCCAAUC | -0.712 |
| AACUCGG | -0.26 |

| Sequence | RNAcompete 7-mer binding Z-score |
| --- | --- |
| GGAUAGU | 1.63 |
| GGUUUAU | 0.137 |
| GGGAUAU | 2.85 |
| UGUUACU | -0.679 |
| GGAACGA | 1.75 |
| CAGAACG | -0.0525 |
| CUUCAGU | -0.493 |
| UCACGAG | -0.26 |
| AUCCGCU | -0.828 |
| UAAUGGG | 2.89 |
| GGCCCAC | -0.806 |
| CCUUACG | -0.846 |
| UAUACAG | -0.118 |
| GCCUCUU | -1.01 |
| ACAGUGC | 0.275 |
| AUGGAUC | 0.756 |
| CUGCGAC | -0.657 |
| CACCCUU | -0.934 |
| AGGUAUG | 1.95 |
| UGAUCAG | 0.0568 |
| AGAGGCG | 0.658 |
| UUUCUAU | -0.763 |
| CUACUAG | -0.584 |

| Sequence | RNAcompete 7-mer binding Z-score |
| --- | --- |
| UCCACUC | -0.894 |
| UCGGCCC | -0.785 |
| UUGGAGC | 1.01 |
| UCUGACA | -0.69 |
| CACUGAA | -0.377 |
| CUCACGU | -0.701 |
| UACUCGG | -0.391 |
| CCUGCAA | -0.73 |
| AUAUGUG | 0.508 |
| CUUAGGU | -0.388 |
| CGCGGUC | -0.238 |
| UCGCACA | -0.475 |
| UUGAAAG | 0.192 |
| UAUCUAU | -0.537 |
| GUAGCAA | 0.603 |
| GAUGUGU | 0.501 |
| CGCUGCC | -0.621 |
| CAAAUGA | -0.191 |
| CACCACC | -0.475 |
| CCCGUCC | -0.737 |
| UUGAUCG | -0.307 |
| UUCAUAA | -0.686 |
| UGCUCAA | -0.639 |

| Sequence | RNAcompete 7-mer binding Z-score |
| --- | --- |
| UAUUGAU | -0.362 |
| GGAUUCA | 0.727 |
| AUUAACA | -0.304 |
| UAACCAC | -0.457 |
| AAGGCUC | 0.119 |
| GUCUUUC | -0.592 |
| UGUUUCC | -0.697 |
| UAACUAC | -0.551 |
| CCUUAAC | -0.861 |
| UACAUAC | -0.333 |
| CAGUUGA | 0.0167 |
| AAACUCA | -0.639 |
| GAAAUUC | -0.38 |
| UCCCAUG | -0.377 |
| AGUUCUU | -0.719 |
| GGGAAGU | 2.76 |
| CAUACCA | -0.369 |
| UCGUUCU | -0.595 |
| CUCUACC | -0.912 |
| UCUAGUA | -0.588 |
| UGGCAGG | 1.88 |
| UGACUCA | -0.453 |
| UUUAGCC | -0.879 |
